Source: PMC12136788
The other results are listed elsewhere or left out.

B1: chr19:12699869:12699961:-|3pUTR|ENSG00000105576|msi1_unk|total|mutant (ssRNA)
RNA: GGGAGUUCUACAGUCCGACGAUCGAGGGUGGGGGUGCCGUUACUUCCCAGUUGGCCAGAAAACUGGGCCUUGCAGACCCCCUCCGCAUUUUUUCCCUUUUUUUCCUUCCCUGCUUUCUACUUCUUUGGGGAGCCCCUUGUGUUCAACAGAGGAUUGAGCAUCA
B2: chr3:14145182:14145283:-|3pUTR|ENSG00000154767|unk|total|mutant (ssRNA)
RNA: GGGAGUUCUACAGUCCGACGAUCUGAAAAUUAAGGAAAUGUCCGUAAAACCGAUGAGUGUUAAACCCGAUUGUAUUCAUUACCCGAUAAAAUGUAUAAAGCUCUCUGUACUAAGGAGAAAUGACUUUUAUAACAUUUUGAGAACAACAGAGGAUUGAGCAUCA
B3: chr6:36925625:36925726:+|3pUTR|ENSG00000198663|msi1|FALSE|unique (ssRNA)
RNA: GGGAGUUCUACAGUCCGACGAUCACUUCUCAAGUUAAUUUUGAUAAGCAGAAUCUACUACUGGCCAGAGCGACAGGAGUGGCUAGGGGUUGCCAGCCAGUCCCUUUCUGAUGAUCAAGGCCCUGCACAGCAGGAUGCCACAGGCAACAGAGGAUUGAGCAUCA
B4: chr4:87981664:87981765:+|CDS|ENSG00000118785|msi1|total|mutant (ssRNA)
RNA: GGGAGUUCUACAGUCCGACGAUCCACUGAUUUUCCCACGGACCUGCCAGCAACCGAAGUUUUCACUCCAGUUGUCCCCACAGCCGACACAUAUGAUGGCCGAGGUGACCGUGUGGUUUAUGGACUGAGGUCAAAAUCUAAGAACAACAGAGGAUUGAGCAUCA
B5: chr1:246907611:246907713:-|CDS|ENSG00000153207|unk|total|mutant (ssRNA)
RNA: GGGAGUUCUACAGUCCGACGAUCUGAAGUACCACACAUCCGAGAAAGUGUAAUGAGACAAGGGCGCCAUCUGUGUUUCCAGUCCGUAAGUCCAACAGGAACAGCUGUUUCAACUCUCCGUUACAUAAGCAGGACAAAUCAGCUCAACAGAGGAUUGAGCAUCA
B6: chr3:23980279:23980388:+|3pUTR|ENSG00000174738|unk|FALSE|unique (ssRNA)
RNA: GGGAGUUCUACAGUCCGACGAUCUUUUUCUUUUCCAAUAUAAAGUUUGCUGAAUGUACAAGAAGAGUUUAUCACUUAGGAUAUAGAAUUUUUUUAGGGGUUGGGGGAGGGGAUCUGUUAGGAAACUGUUACCUAUAAACAAAGCAACAGAGGAUUGAGCAUCA

These binders were tested against MSI1 full-length (mouse, UniProt Q61474 1-362) (assay: nsRBNS (natural sequence RNA bind-n-seq); RBNS binding buffer (assumed for nsRBNS): 25 mM Tris pH 7.5, 150 mM KCl, 3 mM MgCl2, 0.01% Triton X-100, 500 ug/ml BSA, 20 U/ml SUPERase-In, 4 C; UNK is unkempt and MSI1 is Musashi-1; names of the RNAs are library labels; protein concentration not given here; high values mean tight binding).
Sequence of UniProt Q61474 (Q61474 whole entry): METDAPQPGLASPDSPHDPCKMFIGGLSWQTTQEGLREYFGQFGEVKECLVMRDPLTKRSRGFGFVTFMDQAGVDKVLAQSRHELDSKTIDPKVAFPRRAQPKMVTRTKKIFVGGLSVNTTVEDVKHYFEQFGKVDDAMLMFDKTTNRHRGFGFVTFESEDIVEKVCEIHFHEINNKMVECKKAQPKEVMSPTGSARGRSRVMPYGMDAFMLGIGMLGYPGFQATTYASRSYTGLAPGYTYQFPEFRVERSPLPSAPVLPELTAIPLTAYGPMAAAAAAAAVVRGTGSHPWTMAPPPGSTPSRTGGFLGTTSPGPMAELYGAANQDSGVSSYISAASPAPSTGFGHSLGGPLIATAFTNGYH
B1 showed a binding signal of 0.62 enrichment R.
B2 was tested, and the binding signal was 0.275 enrichment R.
Binder B3 has a binding signal of 0.401 enrichment R.
B4 gave a binding signal of 0.314 enrichment R.
Binder B5 has a binding signal of 0.467 enrichment R.
In the case of B6, the binding signal is reported as 3.65 enrichment R.
